Among the data in PMC9911399, “Two distinct binding modes provide the RNA-binding protein RbFox with extraordinary sequence specificity” are binding signal values, retold here.

Numbering of substitutions follows the chain as printed; changes in the protein carry UniProt numbers. The list shows a part of the results.

T1: RBFOX1 RRM (Homo sapiens, UniProt Q9NWB1 109-208)
T1 sequence: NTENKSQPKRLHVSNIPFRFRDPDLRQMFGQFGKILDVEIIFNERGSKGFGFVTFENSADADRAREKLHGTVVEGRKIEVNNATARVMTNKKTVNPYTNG

B1: CUAGCUA (DNA:RNA)
RNA: GGGAGACCGGAAUUCAGAUUGUCCCUAGCUAUUAAAUCCCGUCGUAGCCACCA
DNA 1: CAATCTGAATTCCGGTCTCCC
DNA 2: TGGTGGCTACGACGGGATT
B2: UGCAGAG (DNA:RNA)
RNA: GGGAGACCGGAAUUCAGAUUGUCCUGCAGAGUUAAAUCCCGUCGUAGCCACCA
DNA 1: CAATCTGAATTCCGGTCTCCC
DNA 2: TGGTGGCTACGACGGGATT
B3: GUUUGGA (DNA:RNA)
RNA: B1 RNA with C25G, A27U, G28U, C29G, U30G
DNA 1: CAATCTGAATTCCGGTCTCCC
DNA 2: TGGTGGCTACGACGGGATT
B4: ACGCGAU (DNA:RNA)
RNA: B2 RNA with U25A, G26C, C27G, A28C, G31U
DNA 1: CAATCTGAATTCCGGTCTCCC
DNA 2: TGGTGGCTACGACGGGATT
B5: AGGCUCU (DNA:RNA)
RNA: B2 RNA with U25A, C27G, A28C, G29U, A30C, G31U
DNA 1: CAATCTGAATTCCGGTCTCCC
DNA 2: TGGTGGCTACGACGGGATT
B6: UAGCAAG (DNA:RNA)
RNA: B2 RNA with G26A, C27G, A28C, G29A
DNA 1: CAATCTGAATTCCGGTCTCCC
DNA 2: TGGTGGCTACGACGGGATT
B7: ACGUUGC (DNA:RNA)
RNA: GGGAGACCGGAAUUCAGAUUGUCCACGUUGCUUAAAUCCCGUCGUAGCCACCA
DNA 1: CAATCTGAATTCCGGTCTCCC
DNA 2: TGGTGGCTACGACGGGATT
B8: UAACCUG (DNA:RNA)
RNA: B1 RNA with C25U, U26A, G28C, A31G
DNA 1: CAATCTGAATTCCGGTCTCCC
DNA 2: TGGTGGCTACGACGGGATT
B9: GUACCAC (DNA:RNA)
RNA: B1 RNA with C25G, G28C, U30A, A31C
DNA 1: CAATCTGAATTCCGGTCTCCC
DNA 2: TGGTGGCTACGACGGGATT
B10: UAGAUUG (DNA:RNA)
RNA: B2 RNA with G26A, C27G, G29U, A30U
DNA 1: CAATCTGAATTCCGGTCTCCC
DNA 2: TGGTGGCTACGACGGGATT
B11: GUAGCUA (DNA:RNA)
RNA: B1 RNA with C25G
DNA 1: CAATCTGAATTCCGGTCTCCC
DNA 2: TGGTGGCTACGACGGGATT
B12: ACCGGAC (DNA:RNA)
RNA: B7 RNA with G27C, U28G, U29G, G30A
DNA 1: CAATCTGAATTCCGGTCTCCC
DNA 2: TGGTGGCTACGACGGGATT
B13: GACCGGU (DNA:RNA)
RNA: B2 RNA with U25G, G26A, A28C, A30G, G31U
DNA 1: CAATCTGAATTCCGGTCTCCC
DNA 2: TGGTGGCTACGACGGGATT
B14: AGUCGGU (DNA:RNA)
RNA: B7 RNA with C26G, G27U, U28C, U29G, C31U
DNA 1: CAATCTGAATTCCGGTCTCCC
DNA 2: TGGTGGCTACGACGGGATT
B15: CCGGUUA (DNA:RNA)
RNA: B1 RNA with U26C, A27G, C29U
DNA 1: CAATCTGAATTCCGGTCTCCC
DNA 2: TGGTGGCTACGACGGGATT
B16: CCAUUUC (DNA:RNA)
RNA: B7 RNA with A25C, G27A, G30U
DNA 1: CAATCTGAATTCCGGTCTCCC
DNA 2: TGGTGGCTACGACGGGATT
B17: CGCCUUC (DNA:RNA)
RNA: B7 RNA with A25C, C26G, G27C, U28C, G30U
DNA 1: CAATCTGAATTCCGGTCTCCC
DNA 2: TGGTGGCTACGACGGGATT
B18: UAGCUAU (DNA:RNA)
RNA: B7 RNA with A25U, C26A, U28C, G30A, C31U
DNA 1: CAATCTGAATTCCGGTCTCCC
DNA 2: TGGTGGCTACGACGGGATT
B19: AACCCUA (DNA:RNA)
RNA: B1 RNA with C25A, U26A, A27C, G28C
DNA 1: CAATCTGAATTCCGGTCTCCC
DNA 2: TGGTGGCTACGACGGGATT
B20: GUCGUAU (DNA:RNA)
RNA: B1 RNA with C25G, A27C, C29U, U30A, A31U
DNA 1: CAATCTGAATTCCGGTCTCCC
DNA 2: TGGTGGCTACGACGGGATT
B21: CGAUCAC (DNA:RNA)
RNA: B1 RNA with U26G, G28U, U30A, A31C
DNA 1: CAATCTGAATTCCGGTCTCCC
DNA 2: TGGTGGCTACGACGGGATT
B22: GGUUUCU (DNA:RNA)
RNA: B7 RNA with A25G, C26G, G27U, G30C, C31U
DNA 1: CAATCTGAATTCCGGTCTCCC
DNA 2: TGGTGGCTACGACGGGATT
B23: UCUCGAG (DNA:RNA)
RNA: B2 RNA with G26C, C27U, A28C
DNA 1: CAATCTGAATTCCGGTCTCCC
DNA 2: TGGTGGCTACGACGGGATT
B24: UGUAAAA (DNA:RNA)
RNA: B2 RNA with C27U, G29A, G31A
DNA 1: CAATCTGAATTCCGGTCTCCC
DNA 2: TGGTGGCTACGACGGGATT
B25: CUUCUUA (DNA:RNA)
RNA: B1 RNA with A27U, G28C, C29U
DNA 1: CAATCTGAATTCCGGTCTCCC
DNA 2: TGGTGGCTACGACGGGATT
B26: UGGGUCU (DNA:RNA)
RNA: B7 RNA with A25U, C26G, U28G, G30C, C31U
DNA 1: CAATCTGAATTCCGGTCTCCC
DNA 2: TGGTGGCTACGACGGGATT
B27: GUCGUGU (DNA:RNA)
RNA: B7 RNA with A25G, C26U, G27C, U28G, C31U
DNA 1: CAATCTGAATTCCGGTCTCCC
DNA 2: TGGTGGCTACGACGGGATT
B28: GCGGUGA (DNA:RNA)
RNA: B7 RNA with A25G, U28G, C31A
DNA 1: CAATCTGAATTCCGGTCTCCC
DNA 2: TGGTGGCTACGACGGGATT
B29: UCUGAUG (DNA:RNA)
RNA: B1 RNA with C25U, U26C, A27U, C29A, A31G
DNA 1: CAATCTGAATTCCGGTCTCCC
DNA 2: TGGTGGCTACGACGGGATT
B30: AUUACCG (DNA:RNA)
RNA: B1 RNA with C25A, A27U, G28A, U30C, A31G
DNA 1: CAATCTGAATTCCGGTCTCCC
DNA 2: TGGTGGCTACGACGGGATT
B31: AUUUAUA (DNA:RNA)
RNA: B1 RNA with C25A, A27U, G28U, C29A
DNA 1: CAATCTGAATTCCGGTCTCCC
DNA 2: TGGTGGCTACGACGGGATT

For this test, the target named is T1, RBFOX1 RRM. Description: EMSA; HiTS-Eq, 1 nM pool, 10 min; buffer printed only for the single-RNA assays: 10 mM Tris pH 7.5, 150 mM NaCl, 3.4 mM EDTA, 0.001% NP-40, 30 C. As to conditions: tags: His6 N-terminal (pET28a); label: 5' 32P. The procedure, abridged: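 These values rest on relative association constants, computed from read-count changes of each RNA species versus the control reaction and normalised to the cognate motif. Reads came from free RNA recovered by 8% native PAGE after purified RbFox RRM (wild type or mutant) at increasing concentrations was equilibrated for 10 min in 50 µL with 1 nM of a 5′-radiolabelled pool with 7 randomized nucleotides and DNA-annealed flanks.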
As for B1, the binding signal was 0.00791 KA relative to UGCAUGU. B2: the binding signal is 0.0239 KA relative to UGCAUGU. B3: the binding signal was 0.00795 KA relative to UGCAUGU. For B4, the binding signal was 0.00671 KA relative to UGCAUGU. On to B5, for which the binding signal was 0.013 KA relative to UGCAUGU.

In the case of B6, the binding signal was 0.0159 KA relative to UGCAUGU. As to B7, the binding signal is 0.00964 KA relative to UGCAUGU. The same measure for B8: 0.0101 KA relative to UGCAUGU; for B9: 0.00436 KA relative to UGCAUGU; for B10: 0.0223 KA relative to UGCAUGU.

On to B11, for which the binding signal was 0.00799 KA relative to UGCAUGU.

As to B12, the binding signal was 0.011 KA relative to UGCAUGU. For the molecule B13, the binding signal was 0.012 KA relative to UGCAUGU. Turning to B14, the binding signal was 0.0126 KA relative to UGCAUGU. B15: the binding signal was 0.00936 KA relative to UGCAUGU. The same measure for B16: 0.00251 KA relative to UGCAUGU; for B17: 0.0116 KA relative to UGCAUGU. The same measure for B18: 0.00812 KA relative to UGCAUGU. The same measure for B19: 0.00078 KA relative to UGCAUGU.

As to B20, the binding signal is 0.00822 KA relative to UGCAUGU. The same measure for B21: 0.00542 KA relative to UGCAUGU; for B22: 0.00829 KA relative to UGCAUGU; for B23: 0.0135 KA relative to UGCAUGU. The same measure for B24: 0.00602 KA relative to UGCAUGU; for B25: 0.00104 KA relative to UGCAUGU; for B26: 0.0375 KA relative to UGCAUGU. The same measure for B27: 0.0179 KA relative to UGCAUGU. Regarding B28, the binding signal was 0.0242 KA relative to UGCAUGU. B29: the binding signal was 0.0204 KA relative to UGCAUGU. The same measure for B30: 0.00226 KA relative to UGCAUGU. Take B31: the binding signal is 0.00157 KA relative to UGCAUGU.
